Some of the results follow.
Assays:
HSkMC = human skeletal muscle cells; experiment: cytotoxicity call (relative viability < 0.9); details: 10 µM
HepG2 = experiment: cytotoxicity call (relative viability < 0.9); details: 10 µM
S. aureus RN4220 = experiment: growth inhibition call (relative growth <= 0.2); details: 50 µM

Row | Structure (SMILES) | cytotoxicity call (HSkMC) | cytotoxicity call (HepG2) | growth inhibition call (S. aureus RN4220)
1 | CCOC(=O)C[C@@H](N)c1cccc(O)c1 | inactive | inactive | inactive
2 | CN1CC(=O)N2C(Cc3c([nH]c4ccccc34)C2c2ccc3c(c2)OCO3)C1=O (centres undefined) | inactive | inactive | inactive
3 | C=CC[C@H](CC(=O)NCCO)C(=O)NC[C@H](OC(=O)[C@@H](CC=C)CC(=O)OC(C)(C)C)c1ccccc1 | inactive | inactive | inactive
4 | C[C@H]1CN([C@@H](C)CO)C(=O)c2cccc(NS(=O)(=O)c3ccc(Cl)cc3)c2O[C@@H]1CN(C)Cc1ccc(Cl)c(Cl)c1 | inactive | active | inactive
5 | O=C(/C=C/c1ccc(O)c(O)c1)O[C@H]1[C@H](O)C[C@](O)(C(=O)O)C[C@H]1O | inactive | inactive | inactive
6 | C[C@@H]1CN([C@@H](C)CO)C(=O)c2cc(NC(=O)NC3CCCCC3)ccc2O[C@@H](C)CCCCO[C@@H]1CN(C)Cc1ccc2c(c1)OCO2 | inactive | inactive | inactive
7 | C[C@@H]1CN([C@H](C)CO)C(=O)c2cc(NC(=O)Nc3ccc4c(c3)OCO4)ccc2O[C@@H](C)CCCCO[C@H]1CN(C)S(=O)(=O)c1ccc(F)cc1 | inactive | inactive | inactive
8 | C[C@@H]1CN([C@H](C)CO)C(=O)c2cc(C3=CCCC3)cnc2O[C@@H]1CN(C)S(=O)(=O)c1cn(C)cn1 | inactive | inactive | inactive
9 | CC(C)NC(=O)N[C@H]1C=C[C@@H](CC(=O)NCCN2CCCC2)O[C@@H]1CO | inactive | inactive | inactive
10 | Cc1noc(C)c1NC(=O)N(C)C[C@H]1Oc2ccc(NC(=O)c3ccncc3)cc2CC(=O)N([C@H](C)CO)C[C@H]1C | inactive | inactive | inactive
11 | COc1ccc2c3c(n(c2c1)C)[C@H](CO)N(C[C@]13CCN(CC1)Cc1cccc(c1)F)C(=O)Nc1ccc(cc1)F | inactive | active | inactive
12 | NS(=O)(=O)c1ccc2c(c1)OCCO2 | inactive | inactive | inactive
13 | CC(=O)OCC=C(C)CCC=C(C)CCC=C(C)CCC=C(C)CCC=C(C)CCC=C(C)CCC=C(C)CCC=C(C)CCC=C(C)C | inactive | inactive | inactive
14 | COc1ccccc1-c1cnc2c(c1)C(=O)N([C@H](C)CO)C[C@@H](C)[C@H](CN(C)C(=O)c1ccncc1)O2 | inactive | inactive | inactive
15 | C[C@@H]1CCCCO[C@@H](CN(C)S(=O)(=O)c2ccccc2)[C@@H](C)CN([C@@H](C)CO)C(=O)c2cc(NC(=O)Nc3ccc(C(F)(F)F)cc3)ccc2O1 | inactive | inactive | inactive
16 | NC(=S)NCCC[C@H](N)C(=O)O | inactive | inactive | inactive
17 | CC12CC3(C)CC(C)(C1)CC(C/N=C/c1ccc(O)cc1)(C2)C3 | inactive | inactive | inactive
18 | CO[C@@H]1CN(C)C(=O)c2cc(NC(=O)C3CC3)ccc2OC[C@H](C)N(C(=O)Cc2ccccn2)C[C@@H]1C | inactive | inactive | inactive
19 | C[C@H]1CN([C@@H](C)CO)S(=O)(=O)c2ccc(C#CC3CC3)cc2O[C@@H]1CN(C)Cc1ccc(F)cc1 | active | inactive | inactive
20 | C[C@@H]1CN([C@H](C)CO)C(=O)Cc2cc(NC(=O)c3ccncc3)ccc2O[C@H]1CN(C)Cc1ccc2c(c1)OCO2 | inactive | inactive | inactive

Row | Structure (SMILES) | cytotoxicity call (HSkMC) | cytotoxicity call (HepG2) | growth inhibition call (S. aureus RN4220)
21 | C[C@@H]1CN([C@@H](C)CO)C(=O)c2cc(NC(=O)Cc3cn(C)c4ccccc34)ccc2O[C@@H]1CN(C)CC1CCCCC1 | inactive | inactive | inactive
22 | CCC(=O)O | inactive | inactive | inactive
23 | C[C@H]1CN([C@@H](C)CO)C(=O)c2cc(NC(=O)NC3CCCCC3)ccc2O[C@H]1CN(C)C(=O)Nc1cccc2ccccc12 | inactive | active | inactive
24 | Cc1ccc(S(=O)(=O)Nc2ccc3c(c2)CC(=O)N([C@H](C)CO)C[C@H](C)[C@@H](CN(C)S(=O)(=O)c2cn(C)cn2)O3)cc1 | inactive | inactive | inactive
25 | C[C@H]1CN([C@@H](C)CO)S(=O)(=O)c2ccc(C#Cc3cccc(F)c3)cc2O[C@@H]1CN(C)S(=O)(=O)c1cn(C)cn1 | inactive | inactive | inactive
26 | CN1C(=O)c2cc(NC(=O)Cc3cccs3)ccc2OC[C@@H]2O[C@@H](CC(=O)NCCCN3CCOCC3)CC[C@@H]21 | inactive | inactive | inactive
27 | CC(C)(C)[S@](=O)N1Cc2cc(C(=O)NCC(F)(F)F)nc(-c3cccc(-c4cccc(F)c4)c3)c2[C@@H]1CCO | inactive | active | inactive
28 | COc1ccc(CN(C)C[C@@H]2OCCCC[C@H](C)Oc3ccc(NC(=O)Nc4ccc5c(c4)OCO5)cc3C(=O)N([C@H](C)CO)C[C@H]2C)cc1 | inactive | inactive | inactive
29 | Cc1c(O)c(=O)ccn1C | inactive | inactive | inactive
30 | C[C@@H]1CN([C@@H](C)CO)C(=O)c2cc(NC(=O)NC3CCCCC3)ccc2O[C@@H](C)CCCCO[C@H]1CN(C)C(=O)Nc1ccccc1 | inactive | inactive | inactive
31 | C[C@@H]1CCCCO[C@@H](CN(C)S(=O)(=O)c2ccc(F)cc2)[C@@H](C)CN([C@H](C)CO)C(=O)c2cc(NC(=O)C3CCCCC3)ccc2O1 | inactive | inactive | inactive
32 | Cn1cnc(S(=O)(=O)N[C@@H]2CC[C@@H](CC(=O)Nc3ccccc3)O[C@@H]2CO)c1 | inactive | inactive | inactive
33 | C[C@@H]1CN([C@@H](C)CO)C(=O)CCCn2cc(nn2)CO[C@H]1CN(C)S(=O)(=O)c1ccccc1C#N | inactive | inactive | inactive
34 | CN1C(=O)c2cc(NC(=O)c3cnccn3)ccc2OC[C@H]2O[C@@H](CC(=O)NCC3CCCCC3)CC[C@@H]21 | inactive | inactive | inactive
35 | COCC#Cc1ccc2c(c1)O[C@H](CN(C)C(=O)C1CCCCC1)[C@H](C)CN([C@H](C)CO)S2(=O)=O | inactive | inactive | inactive
36 | C[C@@H]1CCCCO[C@@H](CN(C)C(=O)Nc2ccc3c(c2)OCO3)[C@@H](C)CN([C@H](C)CO)C(=O)c2cc(NS(=O)(=O)c3cccs3)ccc2O1 | inactive | inactive | inactive
37 | C[C@@H]1CN([C@H](C)CO)C(=O)Cc2cc(NS(=O)(=O)c3ccc(F)cc3)ccc2O[C@@H]1CN(C)S(=O)(=O)c1cccs1 | inactive | inactive | inactive
38 | C=c1ccccc1=C1NN=C(SCC(=O)OC)O1 | inactive | inactive | inactive
39 | O=C(O)c1cc(O)ccc1O | inactive | inactive | inactive
40 | C[C@H]1CN([C@@H](C)CO)C(=O)Cc2cc(NS(=O)(=O)c3ccc(F)cc3)ccc2O[C@@H]1CN(C)Cc1ccc(Oc2ccccc2)cc1 | inactive | inactive | inactive

Row | Structure (SMILES) | cytotoxicity call (HSkMC) | cytotoxicity call (HepG2) | growth inhibition call (S. aureus RN4220)
41 | CC(=O)N(C)C[C@@H]1Oc2ncc(C#C[C@@H](C)O)cc2C(=O)N([C@@H](C)CO)C[C@@H]1C | inactive | inactive | inactive
42 | O=C(CN1CCOCC1)NCC[C@H]1CC[C@H](NC(=O)c2ccc3c(c2)OCO3)[C@@H](CO)O1 | inactive | inactive | inactive
43 | Cc1noc(C)c1S(=O)(=O)Nc1ccc2c(c1)CC(=O)N([C@@H](C)CO)C[C@H](C)[C@H](CN(C)C(=O)Nc1ccc3c(c1)OCO3)O2 | inactive | inactive | inactive
44 | COc1ccc(CN(C)C[C@@H]2OCCCC[C@@H](C)Oc3ccc(NC(=O)Nc4ccc(OC)cc4)cc3C(=O)N([C@H](C)CO)C[C@H]2C)cc1 | inactive | inactive | inactive
45 | CC#CCn1c(N2CCC[C@@H](N)C2)nc2c1c(=O)n(Cc1nc(C)c3ccccc3n1)c(=O)n2C | inactive | active | inactive
46 | CCc1nccn1CC(=O)N[C@H]1C[C@@H](C(=O)OC)N(C)C1 | inactive | inactive | inactive
47 | NNC(=O)c1cc2ccccc2[nH]1 | inactive | inactive | inactive
48 | Cc1noc(C)c1NC(=O)Nc1ccc2c(c1)C(=O)N([C@@H](C)CO)C[C@H](C)[C@H](CN(C)Cc1ccc3c(c1)OCO3)OCCCC[C@H](C)O2 | inactive | inactive | inactive
49 | C[C@H]1CCCCO[C@@H](CN(C)Cc2ccc(C(=O)O)cc2)[C@@H](C)CN([C@@H](C)CO)C(=O)c2cc(NC(=O)CCC(F)(F)F)ccc2O1 | inactive | inactive | inactive
50 | Cc1ccc(-c2ccc3c(c2)O[C@@H](CN(C)Cc2cncnc2)[C@H](C)CN([C@@H](C)CO)S3(=O)=O)cc1 | inactive | inactive | inactive
51 | C[C@@H]1CCCCO[C@@H](CN(C)Cc2ccccc2)[C@@H](C)CN([C@H](C)CO)C(=O)c2cc(NC(=O)NC3CCCCC3)ccc2O1 | inactive | inactive | inactive
52 | C[C@H]1CN([C@@H](C)CO)C(=O)c2cccc(NS(=O)(=O)c3cn(C)cn3)c2O[C@@H]1CN(C)S(=O)(=O)c1cn(C)cn1 | inactive | inactive | inactive
53 | C[C@H]1CN([C@@H](C)CO)S(=O)(=O)c2ccc(C#CC(C)(C)O)cc2O[C@@H]1CN(C)C(=O)C1CCCCC1 | inactive | inactive | inactive
54 | C[C@@H]1CN([C@@H](C)CO)C(=O)c2cccc(NC(=O)C3CCCCC3)c2O[C@H]1CN(C)S(=O)(=O)c1cn(C)cn1 | inactive | inactive | inactive
55 | CS(=O)(=O)NC[C@@H]1OC[C@@H]2CCN(C(=O)c3ccnnc3)C[C@@H]21 | inactive | inactive | inactive
56 | C[C@@H]1CN([C@H](C)CO)C(=O)c2cc(NC(=O)Nc3ccc(F)cc3)ccc2O[C@@H](C)CCCCO[C@H]1CN(C)Cc1ccccc1 | active | active | inactive
57 | CNC(=O)C[C@@H]1CC[C@H]2[C@@H](COC[C@H](O)CN2C(=O)c2ccccn2)O1 | inactive | inactive | inactive
58 | C[C@@H]1CN([C@@H](C)CO)C(=O)c2cc(NS(=O)(=O)c3cccs3)ccc2O[C@H]1CN(C)CC1CC1 | inactive | inactive | inactive

From the antibiotic and cytotoxicity screens of Wong et al. (2023)
